Laboratory results taken from a collection of fitness landscapes (doi:10.1016/j.celrep.2020.107928).
Whole data set: some 81,000 sequences, median “one-hybrid fitness for binding parS DNA” near -0.17, cut for the highest 2% near 0.51. The list shows a part of the results.

B1: Caulobacter ParB omega fusion; a variant is named by its letters at X, in order, B8GW30 (parent)
chain: MESVVVGEPGMSEGRRGLGRGLSALLGEVDAAPAQAPGEQLGGSREAPIEILQRNPDQPRRTFREEDLEDLSNSIREKGVLQPILVRPSPDTAGEYQIVAGERAWRAAQRAGLKTVPIMVRELDDLAVLEIGIIENVQRADLNVLEEALSYKVLMEKFERTQENIAQTIGKSXSHVANXMRLLXLPDEVQSYLVSGELTAXHARAIAAAADPVALAKQIIEGGLSVRETEALARKAPNLSAGKSKGGRPPRVKDTDTQALESDLSSVLGLDVSIDHRGSTGTLTITYATLEQLDDLCNRLTRGI

Variants of: B1
Assay: one-hybrid fitness for binding parS DNA (scaled: cognate 1, non-cognate 0); higher = stronger binding
Conditions: with parS DNA site
Procedure, shortened: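 Caulobacter ParB libraries with four specificity codons randomised were screened by bacterial one-hybrid selection in the E. coli USO strain, using a HIS3 reporter whose site lies 19 bp from the promoter. Selection ran for 48 hours at 37°C on M9 lacking histidine, with 0.1 mM IPTG and 5 mM 3-AT. Plasmids were Illumina-sequenced before and after selection, three replicate libraries were pooled, and variants with under 10 reads were dropped. Fitness is the log change in each variant's read ratio to wild type, rescaled against the cognate and non-cognate sites.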

| Variant | one-hybrid fitness for binding parS DNA |
| --- | --- |
| LYAK | ≤ 0.2 |
| VLDI | ≤ 0.2 |
| SKRL | ≤ 0.2 |
| ALTE | ≤ 0.2 |
| NYVR | ≤ 0.2 |
| EPKA | ≤ 0.2 |
| QERP | ≤ 0.2 |
| WSTT | ≤ 0.2 |
| QMDI | ≤ 0.2 |
| MRNW | ≤ 0.2 |
| DTGS | ≤ 0.2 |
| MNML | ≤ 0.2 |
| AYRA | ≤ 0.2 |
| ATGF | ≤ 0.2 |
| NLVA | ≤ 0.2 |
| TMDG | ≤ 0.2 |
| HMDC | ≤ 0.2 |
| CEES | ≤ 0.2 |
| FWPV | ≤ 0.2 |
| RSQA | 0.555 |
| RIAC | 0.973 |
| LRNN | ≤ 0.2 |
| VLRE | ≤ 0.2 |
| KCSC | ≤ 0.2 |
| RSCY | 0.47 |
| HTPA | ≤ 0.2 |

| Variant | one-hybrid fitness for binding parS DNA |
| --- | --- |
| NTSS | ≤ 0.2 |
| PKRV | ≤ 0.2 |
| DNGY | ≤ 0.2 |
| TVYP | ≤ 0.2 |
| GNRG | ≤ 0.2 |
| TWLF | ≤ 0.2 |
| PHMS | ≤ 0.2 |
| HEMS | ≤ 0.2 |
| THKT | ≤ 0.2 |
| QRNQ | ≤ 0.2 |
| HPWC | ≤ 0.2 |
| WAPC | ≤ 0.2 |
| GEVG | ≤ 0.2 |
| TDEN | ≤ 0.2 |
| HWKT | ≤ 0.2 |
| FQIC | ≤ 0.2 |
| QTFR | ≤ 0.2 |
| YDSV | ≤ 0.2 |
| RDTG | ≤ 0.2 |
| VRIT | ≤ 0.2 |
| SGFG | ≤ 0.2 |
| GICR | ≤ 0.2 |
| KTWT | ≤ 0.2 |
| YHYT | ≤ 0.2 |
| PTMP | ≤ 0.2 |
| DQAA | ≤ 0.2 |

| Variant | one-hybrid fitness for binding parS DNA |
| --- | --- |
| HHCR | ≤ 0.2 |
| SAQN | ≤ 0.2 |
| CMVE | ≤ 0.2 |
| CRNS | ≤ 0.2 |
| AGSV | ≤ 0.2 |
| AETT | ≤ 0.2 |
| CQST | ≤ 0.2 |
| RDLS | ≤ 0.2 |
| RWKN | 0.421 |
| ITSC | ≤ 0.2 |
| PIAK | ≤ 0.2 |
| HYLG | ≤ 0.2 |
| LRRV | ≤ 0.2 |
| RQTA | 0.574 |
| DCPE | ≤ 0.2 |
| NLSY | ≤ 0.2 |
| RSTD | ≤ 0.2 |
| RKKY | 0.492 |
| ESED | ≤ 0.2 |
| HPSK | ≤ 0.2 |
| RYNY | 0.466 |
| RSPG | 0.507 |
| MMCS | ≤ 0.2 |
| SWAC | ≤ 0.2 |
| NRNI | ≤ 0.2 |
| ERTT | ≤ 0.2 |

| Variant | one-hybrid fitness for binding parS DNA |
| --- | --- |
| RRCG | 0.758 |
| YDYR | ≤ 0.2 |
| NSHT | ≤ 0.2 |
| CGHS | ≤ 0.2 |
| NVHF | ≤ 0.2 |
| IVET | ≤ 0.2 |
| VKLK | ≤ 0.2 |
| AVHP | ≤ 0.2 |
| AYHS | ≤ 0.2 |
| NDGS | ≤ 0.2 |
| NWAF | ≤ 0.2 |
| TGCV | ≤ 0.2 |
| TWHR | ≤ 0.2 |
| ILLI | ≤ 0.2 |
| MWCC | ≤ 0.2 |
| DTKR | ≤ 0.2 |
| TVMK | ≤ 0.2 |
| IDRG | ≤ 0.2 |
| TCRK | ≤ 0.2 |
| GFTI | ≤ 0.2 |
| RLRW | 0.259 |
| GVAN | ≤ 0.2 |
| NYHF | ≤ 0.2 |
| HGAM | ≤ 0.2 |
| RHTK | ≤ 0.2 |
| KMKI | ≤ 0.2 |

| Variant | one-hybrid fitness for binding parS DNA |
| --- | --- |
| HTGE | ≤ 0.2 |
| TPTL | ≤ 0.2 |
| HYKR | ≤ 0.2 |
| VETT | ≤ 0.2 |
| VKGS | ≤ 0.2 |
| HFTP | ≤ 0.2 |
| LRHG | ≤ 0.2 |
| DKER | ≤ 0.2 |
| TLRK | ≤ 0.2 |
| ESTL | ≤ 0.2 |
| QDAQ | ≤ 0.2 |
| RHDD | ≤ 0.2 |
| YKNF | ≤ 0.2 |
| RNAT | 0.686 |
| KLAD | ≤ 0.2 |
| RLRT | 0.834 |
| HPNC | ≤ 0.2 |
| ACVH | ≤ 0.2 |
| ENEG | ≤ 0.2 |
| HHRS | ≤ 0.2 |
| TSEH | ≤ 0.2 |
| RMQQ | ≤ 0.2 |
| FKAW | ≤ 0.2 |
| ALVW | ≤ 0.2 |
| SGIS | ≤ 0.2 |
| GKER | ≤ 0.2 |

| Variant | one-hybrid fitness for binding parS DNA |
| --- | --- |
| RIRS | 0.874 |
| HNPR | ≤ 0.2 |
| PDKP | ≤ 0.2 |
| STPV | ≤ 0.2 |
| INMS | ≤ 0.2 |
| DLIA | ≤ 0.2 |
| QAWS | ≤ 0.2 |
| REEM | ≤ 0.2 |
| EMST | ≤ 0.2 |
| FGRV | ≤ 0.2 |
| CLDA | ≤ 0.2 |
| CQTL | ≤ 0.2 |
| KRTA | ≤ 0.2 |
| AYTS | ≤ 0.2 |
| RTMP | ≤ 0.2 |
| QCTS | ≤ 0.2 |
| IATM | ≤ 0.2 |
| FSIT | ≤ 0.2 |
| SAIT | ≤ 0.2 |
| WRHR | ≤ 0.2 |
| AVHW | ≤ 0.2 |
| NMGR | ≤ 0.2 |
| CHQM | ≤ 0.2 |
